Results taken from the supplement of paper PMC8728848.
Some of the results follow.

Assays:
Test in all cases: glycan array binding signal (z-score within array); higher = stronger binding
Details in all cases: glycan notation: IUPAC condensed, linker removed
[1] = target: Gal(b1-4)GlcNAc(b1-3)Gal(b1-4)GlcNAc(b1-3)Gal(b1-4)GlcNAc(b1-3)Gal(b1-4)GlcNAc(b1-2)Man(a1-3)[Gal(b1-4)GlcNAc(b1-3)Gal(b1-4)GlcNAc(b1-3)Gal(b1-4)GlcNAc(b1-3)Gal(b1-4)GlcNAc(b1-2)Man(a1-6)]Man(b1-4)GlcNAc(b1-4)[Fuc(a1-6)]GlcNAc
Method in brief: (§1)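 Glycan array data were curated from 3228 arrays in the Consortium for Functional Glycomics database and kept only where the protein sequence was available. Glycan names were converted to IUPAC-condensed notation, and columns mapping to the same glycan were averaged. The binding signal is a within-array Z-score, averaged across arrays of the same protein sequence at different concentrations or buffers and across linkers. Negative Z-scores can be read as non-binding.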

[2] = target: Gal(b1-4)GlcNAc(b1-3)Gal(b1-4)GlcNAc(b1-3)Gal(b1-4)GlcNAc(b1-3)Gal(b1-4)GlcNAc(b1-2)[Gal(b1-4)GlcNAc(b1-3)Gal(b1-4)GlcNAc(b1-3)Gal(b1-4)GlcNAc(b1-3)Gal(b1-4)GlcNAc(b1-6)]Man(a1-6)[Gal(b1-4)GlcNAc(b1-3)Gal(b1-4)GlcNAc(b1-3)Gal(b1-4)GlcNAc(b1-3)Gal(b1-4)GlcNAc(b1-2)Man(a1-3)]Man(b1-4)GlcNAc(b1-4)[Fuc(a1-6)]GlcNAc
Method in brief: as §1

[3] = target: Gal(b1-4)GlcNAc(b1-3)Gal(b1-4)GlcNAc(b1-3)Gal(b1-4)GlcNAc(b1-3)Gal(b1-4)GlcNAc(b1-3)Gal(b1-4)GlcNAc(b1-2)Man(a1-3)[Gal(b1-4)GlcNAc(b1-3)Gal(b1-4)GlcNAc(b1-3)Gal(b1-4)GlcNAc(b1-3)Gal(b1-4)GlcNAc(b1-3)Gal(b1-4)GlcNAc(b1-2)Man(a1-6)]Man(b1-4)GlcNAc(b1-4)GlcNAc
Method in brief: as §1

[4] = target: Gal(b1-4)GlcNAc(b1-3)Gal(b1-4)GlcNAc(b1-3)Gal(b1-4)GlcNAc(b1-3)Gal(b1-4)GlcNAc(b1-3)Gal(b1-4)GlcNAc(b1-2)Man(a1-3)[Gal(b1-4)GlcNAc(b1-3)Gal(b1-4)GlcNAc(b1-3)Gal(b1-4)GlcNAc(b1-3)Gal(b1-4)GlcNAc(b1-3)Gal(b1-4)GlcNAc(b1-2)Man(a1-6)]Man(b1-4)GlcNAc(b1-4)[Fuc(a1-6)]GlcNAc
Method in brief: as §1

[5] = target: Gal(b1-4)GlcNAc(b1-3)Gal(b1-4)GlcNAc(b1-3)Gal(b1-4)GlcNAc(b1-3)Gal(b1-4)GlcNAc(b1-3)Gal(b1-4)GlcNAc(b1-2)[Gal(b1-4)GlcNAc(b1-3)Gal(b1-4)GlcNAc(b1-3)Gal(b1-4)GlcNAc(b1-3)Gal(b1-4)GlcNAc(b1-3)Gal(b1-4)GlcNAc(b1-6)]Man(a1-6)[Gal(b1-4)GlcNAc(b1-3)Gal(b1-4)GlcNAc(b1-3)Gal(b1-4)GlcNAc(b1-3)Gal(b1-4)GlcNAc(b1-3)Gal(b1-4)GlcNAc(b1-2)Man(a1-3)]Man(b1-4)GlcNAc(b1-4)[Fuc(a1-6)]GlcNAc
Method in brief: as §1

[6] = target: Gal(b1-4)GlcNAc(b1-3)Gal(b1-4)GlcNAc(b1-3)Gal(b1-4)GlcNAc(b1-3)Gal(b1-4)GlcNAc(b1-3)Gal(b1-4)GlcNAc(b1-3)Gal(b1-4)GlcNAc(b1-2)Man(a1-3)[Gal(b1-4)GlcNAc(b1-3)Gal(b1-4)GlcNAc(b1-3)Gal(b1-4)GlcNAc(b1-3)Gal(b1-4)GlcNAc(b1-3)Gal(b1-4)GlcNAc(b1-3)Gal(b1-4)GlcNAc(b1-2)Man(a1-6)]Man(b1-4)GlcNAc(b1-4)GlcNAc
Method in brief: as §1

[7] = target: Gal(b1-4)GlcNAc(b1-3)Gal(b1-4)GlcNAc(b1-3)GalNAc
Method in brief: as §1

[8] = target: Gal(b1-4)GlcNAc(b1-3)Gal(b1-4)GlcNAc(b1-3)[Gal(b1-4)GlcNAc(b1-3)Gal(b1-4)GlcNAc(b1-6)]GalNAc
Method in brief: as §1

[9] = target: Gal(b1-4)GlcNAc(b1-3)Gal(b1-4)GlcNAc(b1-6)[Gal(b1-3)]GalNAc
Method in brief: as §1

[10] = target: Gal(b1-4)GlcNAc(b1-3)Gal(b1-4)[Fuc(a1-3)]GlcNAc(b1-3)Gal(b1-4)[Fuc(a1-3)]GlcNAc
Method in brief: as §1

[11] = target: Gal(b1-4)GlcNAc(b1-3)GalNAc
Method in brief: as §1

[12] = target: Gal(b1-4)GlcNAc(b1-3)[Fuc(a1-3)GlcNAc(b1-6)]Gal(b1-4)Glc
Method in brief: as §1

[13] = target: Gal(b1-4)GlcNAc(b1-3)[Gal(b1-4)GlcNAc(b1-6)]Gal(b1-4)GlcNAc
Method in brief: as §1

[14] = target: Gal(b1-4)GlcNAc(b1-3)[GlcNAc(b1-6)]Gal(b1-4)GlcNAc
Method in brief: as §1

[15] = target: Gal(b1-4)GlcNAc(b1-6)Gal(b1-4)GlcNAc
Method in brief: as §1

[16] = target: Gal(b1-4)GlcNAc(b1-6)GalNAc
Method in brief: as §1

[17] = target: Gal(b1-4)GlcNAc(b1-6)[Gal(b1-3)]GalNAc
Method in brief: as §1

[18] = target: Gal(b1-4)GlcNAc(b1-6)[Gal(b1-4)GlcNAc(b1-3)]GalNAc
Method in brief: as §1

Gal(b1-4)GlcNAc6P = target: Gal(b1-4)GlcNAc6P
Method in brief: as §1

Gal(b1-6)Gal = target: Gal(b1-6)Gal
Method in brief: as §1

Gal3S(b1-3)GalNAc = target: Gal3S(b1-3)GalNAc
Method in brief: as §1

Gal3S(b1-3)GlcNAc = target: Gal3S(b1-3)GlcNAc
Method in brief: as §1

[19] = target: Gal3S(b1-3)[Fuc(a1-4)]GlcNAc
Method in brief: as §1

B1: Mermaid3 (Stilbonema majum) (protein)
chain: MGSSHHHHHHSSGLVPRGSHMAASGWLRSPQGTVVKLYRRSLSWSKADEFCKDVDGRLVVDRTADMHLFLIKNVLKEKKSRVWVGLRRTASHSRTWIWSDGTRQNEGDLDANLWLRDEPNDAAGEEECALFMYSPWEKAWGLNDYLCRGGCRNYQFICEKWIR
With B1 the “glycan array binding signal (z-score)” value [1] was -0.034, the “glycan array binding signal (z-score)” value [2] was 0.088 and the “glycan array binding signal (z-score)” value [3] was -0.088. For the same binder, the “glycan array binding signal (z-score)” value [4] was -0.537, the “glycan array binding signal (z-score)” value [5] was 0.124 and the “glycan array binding signal (z-score)” value [6] was -0.526. For the same binder, the “glycan array binding signal (z-score)” value [7] was -0.185, the “glycan array binding signal (z-score)” value [8] was -0.118 and the “glycan array binding signal (z-score)” value [9] was 0.599. The “glycan array binding signal (z-score)” value [10] was -0.554, the “glycan array binding signal (z-score)” value [11] was -0.501 and the “glycan array binding signal (z-score)” value [12] was -0.182. The “glycan array binding signal (z-score)” value [13] was -0.074, the “glycan array binding signal (z-score)” value [14] was 4.93 and the “glycan array binding signal (z-score)” value [15] was -0.287. The “glycan array binding signal (z-score)” value [16] was 0.236, the “glycan array binding signal (z-score)” value [17] was 1.64 and the “glycan array binding signal (z-score)” value [18] was -0.123. For the same binder, the “glycan array binding signal (z-score)” value (Gal(b1-4)GlcNAc6P) was -0.046, the “glycan array binding signal (z-score)” value (Gal(b1-6)Gal) was 1.95 and the “glycan array binding signal (z-score)” value (Gal3S(b1-3)GalNAc) was 0.422. The “glycan array binding signal (z-score)” value (Gal3S(b1-3)GlcNAc) was 0.075 and the “glycan array binding signal (z-score)” value [19] was -0.275.
